Out of some 360,000 compounds screened, about 25,000 (6.9%) were called active. Inconclusive results, whose numbers are uncertain, are shown with a selection of clear calls. The call rests on the fitted dose curve; in most records, active means well fitted inhibition curve with a large enough effect; inconclusive means small, poorly fitted or top-dose-only effect; inactive means flat fitted curve, though single readings scatter. A potency beside an inconclusive call is a rough fit, not a confirmed value.
The compounds below were run against Luciferin 4-monooxygenase (Photinus pyralis) (UniProt P08659) (assay: qHTS profiling assay for firefly luciferase inhibitor/activator using purifed enzyme and Km concentrations of substrates (counterscreen for miR-21 project)). Settings: purified FLuc, luminescence inhibition; activity change, negative = inhibition: at 57.5 µM (top of the series).
Sequence of UniProt P08659 (P08659 whole entry, looked up): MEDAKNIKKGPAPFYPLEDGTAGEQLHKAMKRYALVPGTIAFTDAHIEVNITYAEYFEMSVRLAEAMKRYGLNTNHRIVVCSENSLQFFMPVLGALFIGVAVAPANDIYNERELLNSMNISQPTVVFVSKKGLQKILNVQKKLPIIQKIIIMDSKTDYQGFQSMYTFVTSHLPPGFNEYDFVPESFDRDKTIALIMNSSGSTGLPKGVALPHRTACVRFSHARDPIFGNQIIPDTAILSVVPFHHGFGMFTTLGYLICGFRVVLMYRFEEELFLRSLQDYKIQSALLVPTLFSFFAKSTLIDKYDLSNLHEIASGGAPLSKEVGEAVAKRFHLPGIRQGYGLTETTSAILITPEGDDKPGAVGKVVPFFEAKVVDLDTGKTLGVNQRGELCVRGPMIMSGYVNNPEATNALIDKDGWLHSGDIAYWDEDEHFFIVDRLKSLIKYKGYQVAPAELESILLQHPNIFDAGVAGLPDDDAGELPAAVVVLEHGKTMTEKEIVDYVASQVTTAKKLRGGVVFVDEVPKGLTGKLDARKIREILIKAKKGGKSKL
Outline: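 Purified P. pyralis luciferase, 10 nM final, with Km-level 10 uM D-luciferin and 10 uM ATP in 50 mM Tris acetate pH 7.5, 10 mM Mg acetate, 0.01% Tween-20, 0.05% BSA; 6-point qHTS titration about 60 µM downward; luminescence read.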
With `N#Cc1nc(COc2ccccc2F)oc1N1CCCCCC1` the Potency was inconclusive: 30.1 µM [inhibitor, partial curve, poor fit]. `CC1CCN(C(=S)Nc2ccc(SC(F)F)cc2)CC1` was tested, and the Potency was active: 1.07 µM. `Cc1ccc(/C=N/Nc2ccc(Cl)c(C(=O)O)c2)s1` was tested, and the Potency was active: 4.78 µM. With `COc1cc(N2C(=O)C=CC2=O)c(OC)cc1Cl` the Potency was inconclusive: 9.53 µM [inhibitor, partial curve]. `NC(=O)c1ccccc1OCC(=O)Nc1ccc2c(c1)OCCO2` was tested, and the Potency was active: 8.49 µM. With `O=C(c1ccc(Cl)cc1)N1N=CCC1(O)c1ccc(Cl)cc1` (stereo not given) the Potency was inconclusive: 23.9 µM [inhibitor, single point]. With `COc1ccc(NC(=O)COc2cccc3c2OC(C)(C)C3)c(OC)c1` the Potency was inconclusive: 37.9 µM [inhibitor, single point]. For `COc1cc(/C=C/c2noc(-c3ccccc3O)n2)ccc1OC(C)=O`, the Potency was active: 12 µM. With `COc1ccc(N2CCN(C(=O)c3cc4c(-c5ccccc5F)nn(C)c4s3)CC2)cc1` the “activity change, negative = inhibition” value was inactive: -1.77%. In the case of `Cc1ccc(CNC(=O)COC(=O)CCC(=O)c2cccs2)cc1`, the Potency is reported as inconclusive: 30.1 µM [inhibitor, partial curve, poor fit]. In the case of `CC(C)CNC(=O)c1ccccc1NC(=O)c1ccc(CN2CCOCC2)cc1`, the Potency is reported as inconclusive: 26.9 µM [inhibitor, single point]. `COc1ccc(/C=N/Nc2nnc(-c3ncc[nH]3)c3ccccc23)cc1` was tested, and the Potency was active: 0.338 µM. With `Cc1ccc(NC(=O)COc2ccccc2)cc1Cl` the Potency was inconclusive: 23.9 µM [inhibitor, single point]. For `CCOC(=O)Cc1csc(NC(=O)CCSc2ccccc2)n1`, the Potency was inconclusive: 33.8 µM [inhibitor, partial curve, poor fit]. In the case of `CCc1ccccc1N(C)C(=O)c1cn(CC(C)C)c(=O)c2cc(OC)c(OC)cc12`, the “activity change, negative = inhibition” value is reported as inactive: 2.02%. For `COc1ccc(C(=O)Oc2c(Sc3ccc(C)cc3)c(C)nn2C(C)(C)C)c(OC)c1`, the “activity change, negative = inhibition” value was inactive: -6.31%. `O=[N+]([O-])c1cccc(/C=N/Nc2cc(N3CCOCC3)ncn2)c1` was tested, and the Potency was inconclusive: 4.78 µM [inhibitor, full curve]. For `CCOC(=O)c1cnc2c(N=Nc3cccc(Cl)c3)c(N)nn2c1N`, the Potency was inconclusive: 1.51 µM [inhibitor, partial curve, poor fit]. For `O=C(NCc1cccnc1)c1ccc(COc2ccc3c(c2)CCC3)o1`, the Potency was inconclusive: 19 µM [inhibitor, partial curve, poor fit]. `CN(C)CCCNc1oc(/C=C/c2ccccc2)nc1C#N` was tested, and the Potency was inconclusive: 37.9 µM [inhibitor, partial curve, poor fit].
Further: nearly all actives have a fitted effect of over 55% in size.
Potency means the concentration at half of the fitted maximal effect; tags describe the fitted curve by direction and shape.
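Wherever activity change, negative = inhibition is given: plate controls were vehicle for no effect and reference inhibitor for full effect.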
